The values that follow come from the supplement of paper PMC12889115.

SMILES strings stand for the structures. The list shows a part of the results. Rule as the data show it: active = 25% or less and inactive = the rest. Single values are uncertain, as repeats are few or missing.
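Also: compounds tested were the hits of an earlier 50 µM broth growth screen of a drug-like diversity library run with polymyxin B.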

For the assay, the system named is Salmonella enterica serovar Typhimurium SL1344. Briefly: intramacrophage bacterial GFP load (SAFIRE), percent of DMSO control (% of DMSO); higher = more intracellular bacteria (less inhibition). The settings on record: 25 µM; system: infected RAW 264.7 macrophages. Here is the method:
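Secondary screen of the 553 primary hits at 25 µM. (i) S. Typhimurium SL1344 grown in Mueller-Hinton broth with 0.5 µg/mL polymyxin B, OD600 read after 18 h. (ii) SAFIRE assay: RAW 264.7 macrophages infected with S. Typhimurium sifB::gfp (MOI 30); compound added 2 h post-infection; cells fixed at 18 h; GFP-positive pixel fraction per macrophage imaged by confocal microscopy and expressed as % of DMSO control.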
Take `COc1ccc2c(c1)OC(C)CN(C(=O)/C(F)=C/c1ccccc1)C2` (stereo not given): the “intramacrophage bacterial GFP load” value is inactive: 42.2.

Consider `CN(C(=O)c1cc(NS(C)(=O)=O)cc2ncn(CCc3ccccc3)c12)C(C1CC1)C1CC1`, for which the “intramacrophage bacterial GFP load” value is inactive: 162.

Regarding `CN(Cc1ccon1)c1ccc(-c2nc(Cc3ccc(F)cc3)no2)cn1`, the “intramacrophage bacterial GFP load” value was inactive: 118. On to `COc1cccc(-c2ccccc2NC(=O)C2CCN(Cc3ccccc3)CC2)c1`, for which the “intramacrophage bacterial GFP load” value is active: 0.114. For `CCOC(=O)C1(C/C=C/c2ccccc2)CCCN(C(=O)CCn2ccc(C)n2)C1` (stereo not given), the “intramacrophage bacterial GFP load” value is active: 3.1.

For the molecule `Cc1cc(CN(C)c2ccc(-c3nc(-c4ccccc4F)no3)cn2)on1`, the “intramacrophage bacterial GFP load” value is inactive: 90.7. Then `CN(Cc1n[nH]c2c1CCCCC2)C(=O)CC1(c2ccc(-c3ccccc3)cc2)CC(=O)N(C)C1=O` (stereo not given), with inactive: 91.1; and `COc1ccc(C(=O)N(Cc2ccncc2)Cc2cccc(OCCc3ccc(F)cc3)c2)cc1OC`, with inactive: 68.3; and `Cc1cccc(C(=O)NCc2nc(-c3ccccc3NC(=O)CC3CCCC3)oc2C)n1`, with inactive: 147. As for `COc1cccc(CNCc2c(C(=O)N3CCCCCCC3)nc3ccc(Cl)cn23)c1`, the figure is active: 17.6; as for `CN1C(=O)CC(CC(=O)N2CCCCC2c2nccs2)(c2ccc(-c3ccccc3)cc2)C1=O` (stereo not given), inactive: 55.6; as for `CCOC(=O)C1(Cc2ccccc2Cl)CCN(Cc2nccn2CC)CC1`, active: 19.2.

Take `COc1cccc(CN(C)Cc2nc(-c3ccc(C(F)(F)F)cc3)oc2C)c1`: the “intramacrophage bacterial GFP load” value was active: 5.29. As for `CCOC(=O)C1(Cc2ccc(Cl)cc2)CCN(C(=O)c2ccc3nccnc3c2)CC1`, the figure is inactive: 50.3.

For the molecule `Cc1cccc(CNCC2(O)CCCN(CC3CC3)C2=O)n1` (stereo not given), the “intramacrophage bacterial GFP load” value is inactive: 99.

For `COc1cccc(C2c3[nH]c4ccccc4c3CCN2Cc2ccco2)c1OC` (stereo not given), the “intramacrophage bacterial GFP load” value is inactive: 56.3.

Consider `C=C(C)CN(CC)C(=O)c1cc(COc2cc(C)c(Cl)c(C)c2)on1`, for which the “intramacrophage bacterial GFP load” value is inactive: 107.

Take `Fc1ccc(-c2cnnc(NCc3cccc(OC(F)(F)F)c3)n2)cc1`: the “intramacrophage bacterial GFP load” value is inactive: 88.

`O=C(c1coc(COc2ccc3c(c2)OCO3)n1)N1CC[C@@H]2CCCC[C@H]2C1`: the “intramacrophage bacterial GFP load” value is inactive: 55.4.

Take `COc1ccc(-c2ccc(C(=O)N(Cc3ccncc3)Cc3cccc(OCCc4ccc(F)cc4)c3)o2)cc1`: the “intramacrophage bacterial GFP load” value is inactive: 69.8.

`Cc1nc(CC(=O)N(Cc2ccncc2)Cc2cccc(OCCc3ccc(F)cc3)c2)cs1`: the “intramacrophage bacterial GFP load” value was inactive: 37.4. As for `CCOC(=O)C1(CCc2ccccc2)CCCN(Cc2nccn2CC)C1` (stereo not given), the figure is active: 10.8. Turning to `O=C(CCC1(Cc2ccc(Cl)cc2)CCC(=O)N1)NCc1ccc(C(F)(F)F)cc1` (stereo not given), the “intramacrophage bacterial GFP load” value was inactive: 38.4. As for `CCCCN(C)C(=O)c1sc2ncnc(N3CCCCCCC3)c2c1C`, the figure is inactive: 58.2; as for `CCN1C(=O)CC(CC(=O)N(CC2CCC2)CC2CCCO2)(c2cccc(C(F)(F)F)c2)C1=O` (stereo not given), inactive: 101; as for `COc1ccccc1C(=O)N[C@@H]1c2ccccc2C2(CCN(C(=O)CC3CCCC3)CC2)[C@H]1OC`, inactive: 68.4. With `COc1ccc(-c2nn(-c3ccccc3C)cc2CN(C)Cc2ccon2)cc1F`, the “intramacrophage bacterial GFP load” value is inactive: 78.4.

For `CN(Cc1ccccc1)C1(C(=O)NCCc2c[nH]cn2)Cc2ccccc2C1`, the “intramacrophage bacterial GFP load” value is active: 10.4. As for `CC(C)CN(C)Cc1cnc(S(=O)(=O)CC(C)C)n1Cc1ccccc1`, the figure is inactive: 53.2. As to `CC(=O)Nc1ccnn1C1CCN(Cc2ccc(-c3ccccc3)cc2)CC1`, the “intramacrophage bacterial GFP load” value was active: 12.6.

Regarding `CC(=O)c1ccc(F)c(-c2cc(C)cc3c2OC(CNC(=O)/C=C/c2ccccn2)C3)c1` (stereo not given), the “intramacrophage bacterial GFP load” value is inactive: 172.

In the case of `COCc1ccc(CN2CCCC(C(=O)Nc3ccccc3-c3ccc(OC)cc3)C2)o1` (stereo not given), the “intramacrophage bacterial GFP load” value is inactive: 37.6. As for `CCC1CN(C(=O)c2cccc(Cn3cccn3)c2)Cc2ccc(Cl)cc2O1` (stereo not given), the “intramacrophage bacterial GFP load” value is active: 18.7. Then `CCC(=O)C1CCCN(C(=O)C2CCCN(c3nc(C)c4ccc(OC)cc4n3)C2)C1` (stereo not given), with inactive: 28.1. Then `Cc1csc(SCC(=O)N2CCC3(CC2)CC3C(=O)NCCc2nc3ccccc3n2C)n1` (stereo not given), with inactive: 112; and `Cc1ccccc1CCC1CCCN(C(=O)CC2CC2)C1` (stereo not given), with inactive: 116. Regarding `CC(C)C[C@H](NC(=O)c1csc2nc(-c3cccc(C(F)(F)F)c3)cn12)C(N)=O`, the “intramacrophage bacterial GFP load” value was inactive: 124.

As for `CCCCN(C)C(=O)c1nc2ccccn2c1CN(C)Cc1ccc(CC)cc1`, the “intramacrophage bacterial GFP load” value was active: 12. Then `Cc1ccc(OCCN(C)C(=O)C2CC23CCN(Cc2nc4ccccc4s2)CC3)cc1` (stereo not given), with inactive: 33.3; and `Cc1cc(-c2nn(-c3ccccc3F)cc2CN(C)Cc2ccon2)c(C)s1`, with inactive: 37.1.
